These results are taken from the supplement of paper PMC11417369.

The other results are listed elsewhere or left out.

This test deals with PF3D7_0420300 AP2 domain 1 (GST-tagged). Put plainly: gcPBM binding intensity (ln(normalized median fluorescence intensity)); higher = stronger DNA binding. The method, boiled down:
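Using an Agilent 4 × 180k array, primer-extended double-stranded 36-bp intergenic genomic probes and negative controls were exposed for 1 h to GST-fused P. falciparum DNA-binding domains expressed in E. coli. Binding was carried out in 1× PBS with 1% milk, 0.2 mg/ml BSA, 0.5% salmon testes DNA and 0.03% Triton X-100, and protein was detected with Alexa488 anti-GST antibody and a 488 nm scan. Binding intensity is the highest Masliner-normalised natural-log median intensity across replicate spots of either probe orientation.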
Regarding “TATATAATTATAAGAACACACATATATATATATATA [CACACA_site2472]”, the “gcPBM binding intensity (ln)” value turned out to be 9.19.

Turning to “AAATTTGAAGAATATTGTACGCATAATAATTAAATA [XGTACX_site4300]”, the “gcPBM binding intensity (ln)” value came to 9.23.

As for “TTCTAACTTTTAAACACACAAATATAAATAAGTATA [CACACA_site7473]”, the “gcPBM binding intensity (ln)” value came out at 9.12.

With “GAACGTATCATGTGTACACACAAATTGTTTTTTTTT [CACACA_site2020]”, the “gcPBM binding intensity (ln)” value was 9.72.

Regarding “AAATGAACAAGTGGCACACACACATTATAACTAATT [CACACA_site9048]”, the “gcPBM binding intensity (ln)” value was found to be 9.92.

Take “AAGAATAATAATAAATGTACACAATATTATATATAT [XGTACX_site5525]”: the “gcPBM binding intensity (ln)” value was 9.36.

For TGCAAGCTTATATAGGTGCACATGTATACGTGTTCA, the “gcPBM binding intensity (ln)” value was determined as 9.21.

Take “TATTAAAATTAAAAAAAAAAAAAAAAGCAATAAAAA [XGTACX_negctrl_site426]”: the “gcPBM binding intensity (ln)” value came out at 9.3.

In the case of “TATATACACAAACACACACACACATACACCCACATA [CACACA_site8504]”, the “gcPBM binding intensity (ln)” value stood at 10.3.

In the case of “TATGTAGTCACAAGGTGTACACTTTAACAAATTATG [XGTACX_site8792]”, the “gcPBM binding intensity (ln)” value was determined as 9.09.

For “AATTATATATTTGAGAGTACATATGTAATGTTTATA [XGTACX_site6970]”, the “gcPBM binding intensity (ln)” value worked out at 9.23.

“GTGCATATCTGATATACACACAATAAAATAGTATGT [CACACA_site7203]”: the “gcPBM binding intensity (ln)” value came to 9.33.

On to “CATATATTATTTATACGTACTAATAAAATAAATCAA [XGTACX_site1030]”, for which the “gcPBM binding intensity (ln)” value stood at 9.08.

Take “TATGATACATAAATATGTACGTATAATATATATTTA [XGTACX_site7002]”: the “gcPBM binding intensity (ln)” value was found to be 9.12.

As to “CCCGTAAATTATGAGTGTACGTTATTTTTTAAAATG [XGTACX_site3946]”, the “gcPBM binding intensity (ln)” value worked out at 9.06.

Take “ACATATACATATATATGTACATAAATATATATATAT [XGTACX_site8630]”: the “gcPBM binding intensity (ln)” value turned out to be 9.17.

As to “AAAAAATAATAAATCACACATATTATATATATATAT [CACACA_site5838]”, the “gcPBM binding intensity (ln)” value turned out to be 9.28.

On to “AACATGAAAGATAGCAAAAAAAAAAAAAAAAAAAAA [TGCATGCA_negctrl_site607]”, for which the “gcPBM binding intensity (ln)” value is 8.42.

With “TCTTTTTTTATTTTATTTTTTTTTTTTAAATAATTC [TGCATGCA_negctrl_site372]”, the “gcPBM binding intensity (ln)” value stood at 9.09.

For “CATATTAATATTATGGGTACATATAAATTTACATTC [XGTACX_site687]”, the “gcPBM binding intensity (ln)” value came out at 9.22.

As to “AAAACATAAATACATACACACATAATATATATTAAT [CACACA_site109]”, the “gcPBM binding intensity (ln)” value amounted to 9.76.

“ATTATAATATTGTTATGTACATAAAAATTATTGAAT [XGTACX_site4476]”: the “gcPBM binding intensity (ln)” value came to 9.19.

As to “TGATTCTTTTGTATCACACACACTTAGTTTAATTTT [CACACA_site2404]”, the “gcPBM binding intensity (ln)” value was found to be 9.75.

Take “TTTTTTTATTATCATGCACACATTTTTTTTTTTTAC [CACACA_site2253]”: the “gcPBM binding intensity (ln)” value turned out to be 9.57.

Turning to “ACTTGACACGGACACACACACATATATAAAAAAAAA [CACACA_site4576]”, the “gcPBM binding intensity (ln)” value was 9.87.

In the case of “TCCTTTATTTTTAAATGTACAAATATTATCTCCTCA [XGTACX_site5856]”, the “gcPBM binding intensity (ln)” value is 9.07.

In the case of “ATAATAAAAATAAGAGAATAAAAATGCAATTTAATG [CACACA_negctrl_site878]”, the “gcPBM binding intensity (ln)” value came out at 9.44.

Consider “AACTCACATAAATTCACACAAATGTATATTCATATA [CACACA_site4554]”, for which the “gcPBM binding intensity (ln)” value stood at 9.23.

Take “ATTGATCGGATAAAATGTACAAATATATATATATAT [XGTACX_site7345]”: the “gcPBM binding intensity (ln)” value was determined as 9.27.

On to “ATTTATAATGTGTATACACACATATATAGATTTGCT [CACACA_site6440]”, for which the “gcPBM binding intensity (ln)” value is 9.46.

For “AAATTATAATATAATACACACATAAAAAAAAAATCA [CACACA_site3634]”, the “gcPBM binding intensity (ln)” value turned out to be 9.56.

As to “TATATATATATATATTGTACACATATATATTTACGA [XGTACX_site4791]”, the “gcPBM binding intensity (ln)” value was 9.14.

Take “AATAATACACAATTTTGTACGTATTTAAAATATATT [XGTACX_site45]”: the “gcPBM binding intensity (ln)” value was determined as 9.26.

“AATTAAAAACATTTCACACATAAAAATGAAATATAT [CACACA_site5199]”: the “gcPBM binding intensity (ln)” value was found to be 9.31.

For the sequence TATTTATGAGAAATAGTGCAAAGATATGATCTTTAA, the “gcPBM binding intensity (ln)” value was 8.9.

In the case of “TAAAATATATAATAATGTACATATTTTTATTTAGGA [XGTACX_site4987]”, the “gcPBM binding intensity (ln)” value is 9.06.

As to “AAAAATTACCTGACTTGTACATAATTTAAGAACAAT [XGTACX_site6233]”, the “gcPBM binding intensity (ln)” value is 9.13.

With “ATAATATATTTATAATGTACATAAGAACAAATTAAA [XGTACX_site1745]”, the “gcPBM binding intensity (ln)” value was 9.32.

“ACGTTTGATACACATAAAGTTTTCCTTTGAATGTAC [CACACA_negctrl_site106]”: the “gcPBM binding intensity (ln)” value amounted to 9.26.

Regarding “GGTATATTAAAATAGGTGCATAAAACTAAGAGAAAA [GTGCAC_site9781]”, the “gcPBM binding intensity (ln)” value was 9.41.

Regarding “TGTGCTATATTCATATGTACATATAATTATTATATA [XGTACX_site3549]”, the “gcPBM binding intensity (ln)” value is 9.31.

“ATAAAATAAAAGTGTACACAAGAAAATATGTTATGT [CACACA_site6033]”: the “gcPBM binding intensity (ln)” value is 9.65.

In the case of “ATTTGTGATTTGTGTGTGCACGTATTTACAGAACAA [GTGCAC_site9498]”, the “gcPBM binding intensity (ln)” value turned out to be 9.72.

“AAGAAAAAATATATATATATATATATATATAATATG [TGCATGCA_negctrl_site417]”: the “gcPBM binding intensity (ln)” value is 9.11.

Consider “TTATATTATTTTTATACATGCATTTCTATATATTTT [TGCATGCA_site164]”, for which the “gcPBM binding intensity (ln)” value worked out at 9.57.

On to “TTCAATTTTTTATGAACACACAAAAAAAAAAAAAAA [CACACA_site2533]”, for which the “gcPBM binding intensity (ln)” value amounted to 8.69.

With “ATATATAAGGATGTCACACATAAATATTAACACTAA [CACACA_site5101]”, the “gcPBM binding intensity (ln)” value came out at 9.32.

For the sequence “TGTATTAATAAAAATACACACATCATATTATAGAAA [CACACA_site7629]”, the “gcPBM binding intensity (ln)” value came to 9.49.

Regarding “TATAAGATTATACAAAGTACATATAAATAATATATT [XGTACX_site1917]”, the “gcPBM binding intensity (ln)” value is 9.23.

Take “ATATATATATAAATATGTACATATATATATTATATA [XGTACX_site120]”: the “gcPBM binding intensity (ln)” value came to 9.24.

In the case of “TCCTCTTTTATTTTTACACACGCGTAAACATATATA [CACACA_site667]”, the “gcPBM binding intensity (ln)” value turned out to be 9.64.

Turning to “TTAAAAAAAGATTATACACACACATATATAAACATA [CACACA_site8136]”, the “gcPBM binding intensity (ln)” value was determined as 9.93.

Take “TGAAATAAAAAATATAGTACTCGTTCGTAACCAAAA [XGTACX_site413]”: the “gcPBM binding intensity (ln)” value turned out to be 9.26.

In the case of “ATGGGTTAAAAATGCACACAAAAAAATATACAGATA [CACACA_site4321]”, the “gcPBM binding intensity (ln)” value came out at 9.75.

Regarding “TATATTAAATAAAAAGTGCATGTCTCATAAGATGGA [GTGCAC_site9520]”, the “gcPBM binding intensity (ln)” value was 9.19.

Consider “ATAGGGAATTTATGCACACAGTTAAGGGGGAAAATT [CACACA_site5183]”, for which the “gcPBM binding intensity (ln)” value amounted to 9.66.

Regarding “ATAAAATGTTAAGGGTGTACTTTACACATCTCCTAT [XGTACX_site4699]”, the “gcPBM binding intensity (ln)” value is 9.21.
